Source: the supplement of paper PMC10369915
This is one part of the list. Cut-off read from the data, not from the text of the source: active = 3.2 or more and inactive = the rest. Most of these values are background signal.

B1: L1TD1_Y24_R27S (peptide)
chain: KENITYMKSEQ
B2: LAMA2_Y1258 (peptide)
chain: LKYAIYFEARE
B3: LIG3_Y768_Y768H (peptide)
chain: VNKIYHPDFIV
B4: L1CAM_Y1229 (peptide)
chain: SFIGQYSGKKE
B5: KRT19_Y65 (peptide)
chain: AYGGGYGGVLT
B6: LDLR_Y847_P848L_YF (peptide)
chain: QDGFSYLSRQM
B7: KRT24_Y120 (peptide)
chain: ATGGFYSYGGG
B8: KRT75_Y434_R432C (peptide)
chain: RLLCEYQELMN
B9: LGR4_Y848_D844G_YF (peptide)
chain: FGCGMYSHLQG
B10: KRT74_Y425 (peptide)
chain: RMLREYQELMS
B11: LGR5_Y387_H383R (peptide)
chain: RRNEIYEIKVD
B12: L1CAM_Y418_V421D (peptide)
chain: LLANAYIYDVQ
B13: KRT19_Y65_A60G_YF (peptide)
chain: GFGGGYGGVLT
B14: KRT19_Y61 (peptide)
chain: SSSGAYGGGYG
B15: LIG3_Y767_Y768H (peptide)
chain: KVNKIYHPDFI
B16: KRT8_Y54 (peptide)
chain: GLGGGYGGASG
B17: LEF1_Y114 (peptide)
chain: SSYSGYIMMPN
B18: L1CAM_Y418 (peptide)
chain: LLANAYIYVVQ
B19: L1CAM_Y784 (peptide)
chain: STFVPYEIKVQ

Each binder was assayed against SHP2 C-SH2 domain E139D (assay: enrichment score (SH2-bound / input frequency) (ratio); bacterial display of known human phosphotyrosine sites (pTyr-Var adds point mutants) read by sequencing; higher = stronger binding; tyrosines were phosphorylated by kinases first). Details: peptide library: pTyr-Var.
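Note: displayed peptides selected on beads carrying the immobilized SH2 domain, with library peptides lacking any tyrosine serving as negative controls.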

Binder	enrichment score
B1	inactive: 0.775
B2	inactive: 1.22
B3	inactive: 1.12
B4	inactive: 1.26
B5	inactive: 0.617
B6	inactive: 0.646
B7	inactive: 0.737
B8	inactive: 0.688
B9	inactive: 1.33
B10	inactive: 0.911
B11	inactive: 0.685
B12	inactive: 1.07
B13	inactive: 1.05
B14	inactive: 0.46
B15	inactive: 0.716
B16	inactive: 0.51
B17	inactive: 0.76
B18	inactive: 1.34
B19	inactive: 0.923

The binders below were run against SHP2 C-SH2 domain wild-type in the same assay as above. Details: peptide library: pTyr-Var.

Binder	enrichment score
B1	inactive: 0.571
B2	inactive: 1.37
B3	inactive: 0.673
B4	inactive: 0.984
B5	inactive: 0.706
B6	inactive: 0.642
B7	inactive: 0.802
B8	inactive: 1.21
B9	inactive: 1.72
B10	inactive: 0.728
B11	inactive: 0.637
B12	inactive: 1.6
B13	inactive: 0.765
B14	inactive: 0.467
B15	inactive: 0.838
B16	inactive: 0.617
B17	inactive: 0.751
B18	inactive: 1.55
B19	inactive: 1

These binders were tested against SHP2 N-SH2 domain L43F in the same assay as above. Details: peptide library: pTyr-Var.

Binder	enrichment score
B1	inactive: 0.599
B2	inactive: 1.71
B3	inactive: 0.764
B4	inactive: 0.923
B5	inactive: 0.657
B6	inactive: 0.682
B7	inactive: 0.863
B8	inactive: 1.4
B9	inactive: 1.1
B10	inactive: 0.703
B11	inactive: 0.767
B12	inactive: 1.32
B13	inactive: 0.895
B14	inactive: 0.431
B15	inactive: 0.812
B16	inactive: 0.606
B17	inactive: 0.698
B18	inactive: 1.31
B19	inactive: 1.08

Each binder was assayed against SHP2 N-SH2 domain T42A in the same assay as above. Details: peptide library: pTyr-Var.

Binder	enrichment score
B1	inactive: 0.581
B2	inactive: 1.21
B3	inactive: 1.1
B4	inactive: 0.909
B5	inactive: 0.591
B6	inactive: 0.736
B7	inactive: 0.734
B8	inactive: 1.22
B9	inactive: 1.07
B10	inactive: 0.81
B11	inactive: 0.619
B12	inactive: 1.07
B13	inactive: 0.758
B14	inactive: 0.385
B15	inactive: 0.618
B16	inactive: 0.718
B17	inactive: 0.932
B18	inactive: 1.17
B19	inactive: 0.816

These binders were tested against SHP2 N-SH2 domain T52S in the same assay as above. Details: peptide library: pTyr-Var.

Binder	enrichment score
B1	inactive: 0.543
B2	inactive: 1.22
B3	inactive: 1.01
B4	inactive: 0.989
B5	inactive: 0.622
B6	inactive: 0.702
B7	inactive: 0.688
B8	inactive: 0.922
B9	inactive: 1.36
B10	inactive: 0.754
B11	inactive: 0.858
B12	inactive: 0.931
B13	inactive: 0.837
B14	inactive: 0.402
B15	inactive: 0.89
B16	inactive: 0.642
B17	inactive: 0.736
B18	inactive: 1.19
B19	inactive: 0.904

What follows are binders tested against SHP2 N-SH2 domain wild-type in the same assay as above. Details: peptide library: pTyr-Var.

Binder	enrichment score
B1	inactive: 0.601
B2	inactive: 2.3
B3	inactive: 0.713
B4	inactive: 1.32
B5	inactive: 0.817
B6	inactive: 0.695
B7	inactive: 0.798
B8	inactive: 1.59
B9	inactive: 1.99
B10	inactive: 0.972
B11	inactive: 0.793
B12	inactive: 1.13
B13	inactive: 0.987
B14	inactive: 0.546
B15	inactive: 0.639
B16	inactive: 0.716
B17	inactive: 0.736
B18	inactive: 1.53
B19	inactive: 1.21
